This note sets out measurements from patent publication US20240123068A1 (KITE PHARMA, published 2024).

This experiment concerns the target T1, Human CD19, wild-type full-length protein expressed on cells (human, UniProt P15391 20-556).
T1 construct: also called WT CD19; CD19 wild type protein
T1 sequence: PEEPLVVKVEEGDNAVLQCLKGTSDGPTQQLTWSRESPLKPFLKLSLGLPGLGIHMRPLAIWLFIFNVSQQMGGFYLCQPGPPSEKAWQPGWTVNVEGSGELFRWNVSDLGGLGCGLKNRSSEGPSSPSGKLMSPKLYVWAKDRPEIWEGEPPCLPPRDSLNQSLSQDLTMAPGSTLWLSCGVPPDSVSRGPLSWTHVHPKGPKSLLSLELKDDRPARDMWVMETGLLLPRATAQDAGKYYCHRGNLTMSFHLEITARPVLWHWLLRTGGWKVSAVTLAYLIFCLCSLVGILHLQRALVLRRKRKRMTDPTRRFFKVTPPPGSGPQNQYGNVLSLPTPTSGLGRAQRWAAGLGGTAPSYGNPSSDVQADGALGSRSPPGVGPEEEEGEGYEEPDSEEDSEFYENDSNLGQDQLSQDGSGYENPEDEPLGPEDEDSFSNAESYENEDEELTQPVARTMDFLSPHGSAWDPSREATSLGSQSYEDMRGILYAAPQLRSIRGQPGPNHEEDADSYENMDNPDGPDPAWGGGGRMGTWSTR
The experiment in a line: scFv clone screen on NALM6 cells with and without CD19.

B1: CD19 A4 scFv (P2) (scFv)
scFv: [about 100 residues left out here]SWTFGQGTKVEIKGGGGSGGGGSGGGGSQVQLVQSGAEVKKPGSSVKVSCKASGGTFSNYYISWVRQAPGQGLEWMGGIIPLFGTTNYAQKFQGRVTITADESTSTAYMELSSLRSEDTAVYYCARGTWYAGDIWGQGTLVTVSS
notes: also called 43; clone 43
As for B1, the binding result is on record as “binds”.

B2: CD19 E4 scFv (P3) (scFv)
scFv: [about 100 residues left out here]VTFGQGTKVEIKGGGGSGGGGSGGGGSQVQLVQSGAEVKKPGSSVKVSCKASGGTFSNYAINWVRQAPGQGLEWMGRIVPLLGIANYAQKFQGRVTITADESTSTAYMELSSLRSEDTAVYYCAREHIAYRPTSAGYYYYMDIWGQGTLVTVSS
notes: also called 44; clone 44
Take B2: the binding result was “binds”.
